Screen size: about 46,000 compounds; about 60 (0.1%) were called active. Roughly 3% stayed inconclusive and do not appear here. Calls follow the shape of the dose curve; as a rule, active = well fitted inhibition curve with a large enough effect; inconclusive = small, poorly fitted or top-dose-only effect; inactive = no such curve, though single readings can be large or run the other way. The list shows a part of the results.
Experiment: Primary qHTS assay for Inhibitors of ovarian cancer metastasis using an organotypic tumor microenvironment (TME) model. Also: nearly all actives have a fitted effect of over 65% in size.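 As to activity change, negative = inhibition: plate controls were DMSO wells for no effect and tomatine positive control wells for full effect.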
Details: SKOV3ip1-GFP adhesion/invasion on 3D omental model, fluorescence; series mostly up to 45.8 µM; activity change, negative = inhibition: at the top concentration
Summary of the method: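 Adhesion/invasion was scored as fixed GFP-labeled SKOV3ip1 cell counts (488/509 nm), normalized to DMSO and tomatine controls. Cancer cells in serum-free medium, with four compound doses (0.36-46 umol/L), sat 2 hr at RT then 16 hr at 37 C on a 48 hr fibroblast/mesothelial/ECM culture.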

outcome, inactive:
CCc1ccccc1Nc1nn2c(=O)c3ccc(C(=O)NCCCOC(C)C)cc3nc2s1, CC(=O)c1cccc(NC(=O)CC(c2ccc(C)cc2)N2Cc3ccccc3C2=O)c1 (stereo not drawn), COc1cc2ncc(C(=O)c3ccc(C)cc3)c(N3CCCCC3)c2cc1OC, COc1cccc(CNC(=O)Cc2c(C)c3ccc(OC)c(C)c3oc2=O)c1, Cc1ccc(S(=O)(=O)c2nnn3c2nc(NCCc2ccccc2)c2sccc23)cc1, Cc1ccc(CNC(=O)c2c[nH]n3c(=O)c(Cc4ccc(Cl)cc4)c(C)nc23)cc1, Cn1c(=O)oc2cc(S(=O)(=O)N3CCCC(C(=O)NCCc4ccccc4)C3)ccc21 (stereo not drawn), O=C(NCCc1ccccc1)c1nn(-c2ccc(F)cc2)nc1CO, COC(=O)c1ccccc1NC(=O)CSc1nc(=O)cc(N)n1-c1ccccc1, CCOc1ccc(NC(=O)CSc2nnc(-c3ccc(OCC)cc3)o2)cc1, Cc1ccc(Cl)cc1NC(=O)C1CCN(S(=O)(=O)c2cccc3nonc23)CC1, COc1cccc(Cn2c(=O)n(CCc3ccccc3)c(=O)c3c2c2cc(OC)ccc2n3C)c1, CCOc1ccc(N(CC(=O)Nc2ccccc2CC)S(=O)(=O)c2c(C)noc2C)cc1, CCn1nc(-c2ccccc2)c(-c2ccccc2)c(C(=O)Nc2ccccc2C#N)c1=O, COc1cc2[nH]c(=O)n(CCC(=O)N3CCN(c4ccc(Cl)cc4)CC3)c(=O)c2cc1OC, CCN(Cc1ccccc1)C(=O)Cn1c(=O)n(-c2cccc(C)c2)c(=O)c2c1c1cc(C)ccc1n2C, Cc1csc2nc(COc3ccc(NC(=O)COc4ccccc4)cc3)cc(=O)n12

Activity change, negative = inhibition, inactive:
COc1ccccc1Nc1cc(C(=O)NC2CCC(C)CC2)c2ccccc2n1 (stereo not drawn) 7.96%, CCOC(=O)c1c(C)[nH]c(C)c1S(=O)(=O)N1CCCC(C(=O)NCc2ccc(Cl)cc2)C1 (stereo not drawn) 24.6%, CCOCCCNC(=O)CN1C(=O)COc2ccc(S(=O)(=O)N3CCCC3)cc21 -2.46%, Cc1ccc(N2CC(NC(=O)c3ccc(S(=O)(=O)N4CCOCC4)cc3)CC2=O)cc1 (stereo not drawn) 9.98%, CCOC(=O)c1cnn(-c2ccc(C(=O)Nc3cccc(C(C)=O)c3)cc2)c1N -11.1%, CCn1nc(C)c(CCN(C)C(=O)Nc2cc(OC)c(OC)c(OC)c2)c1C 5.73%, O=C(CS(=O)Cc1ccco1)NCC=CCOc1cc(CN2CCCCC2)ccn1 (stereo not drawn) 2.89%, COc1ccccc1CN1C(=O)CN(C2CCCCCC2)C(=O)C1c1ccc(F)cc1 (stereo not drawn) -35.2%, Cc1c(Cl)cccc1NC(=O)C1CCN(c2ncnc3c2nc2n3CCCCC2)CC1 -6.23%, Cc1ccc(CNC(=O)CCn2cnc3ccccc3c2=O)cc1 -1.13%, Cc1ccc2nc(Nc3ccc(C)c(F)c3)c3nncn3c2c1 -18.3%, CCN(C(=O)Nc1cn(CC(C)C)c(=O)c2ccccc12)c1cc(C)ccc1C -5.26%, COc1cc(C)cc2oc(=O)c(CC(=O)NCCc3ccc(Cl)cc3)c(C)c12 -6.81%, O=C(CCn1c(=O)c2cccn2c2cccnc21)N1CCN(c2ccccc2F)CC1 -6.37%, Fc1cccc(-c2nnn3c2nc(NCCc2ccccc2)c2ccccc23)c1 -9.09%, O=C(COCc1cc(-c2cccs2)on1)N1CCN(c2cccc(Cl)c2)CC1 3.4%, COc1ccc2cc(C(=O)NCc3ccc4c(c3)CCN4C(=O)c3ccc(F)cc3)[nH]c2c1 -1.1%, COc1ccc(CC(=O)NCCc2csc(-c3cccc(C)c3)n2)cc1 8.82%, CC(C)OCCCNC(=O)Cn1ccc2cc(S(=O)(=O)N3CCCCCC3)ccc21 -10.8%, CC(C)CNC(=O)N1[C@H](c2cccs2)[C@@H](C)C(=O)[C@@H](C)[C@@H]1c1cccs1 -6.29%, Cc1nc(-c2ccccc2)sc1-c1ccc(SCC(=O)NCc2ccc(Cl)cc2)nn1 8.24%, Cc1oc(-c2ccccc2Cl)nc1Cn1c(SCc2cccc(F)c2)nc2cccnc21 4.1%, Cc1ccc(-n2c(=O)[nH]c3cc(C(=O)NCc4ccccc4)ccc3c2=O)cc1 3.24%, Cc1ccc(CCNS(=O)(=O)c2ccc3c(c2)CC(C)N3C(=O)C2CCC2)cc1 (stereo not drawn) -1.03%, NCCCCNCCCN -0.101%, COCCCNC(=O)Cn1c(=O)nc(-c2ccccc2)c2ccccc21 -3.46%, Nc1ncn([C@H]2C[C@H](O)[C@@H](CO)O2)c(=O)n1 7.02%, Cc1ccc(-n2nc3c(=O)n(CC(=O)NCCC(C)C)nc(C)c3c2C)cc1 0.175%, CC(CNC(=O)c1nnc(Cc2ccc(F)cc2)o1)c1ccccc1 (stereo not drawn) 1.23%, COc1cccc(NC(=O)CSc2nccn2C2CCCC2)c1 -34.7%, O=C(Cn1cc(S(=O)(=O)Cc2cccc(Cl)c2)c2ccccc21)Nc1ccccc1Cl -0.552%, Cc1cccn2c(=O)c(C(=O)NCCc3ccccc3)cnc12 0.646%, CCOc1ccc(CCNC(=O)c2cc(C)nc3c2c(C)nn3-c2cccc(F)c2)cc1 -19.7%, CCCCC12CN3CC(C)(CN(C1)C3c1ccc(O)c(OC)c1)C2=O (stereo not drawn) -1.19%, COc1ccc(Cn2cc(C(=O)c3ccc(C)c(C)c3)c(=O)c3ccccc32)cc1 4.7%, Cc1ccc(F)cc1NC(=O)Cn1c(C)cc(C)c(C#N)c1=O -9.8%, COc1ccc(C2=C(N3CCN(c4cccc(C)c4)C(C)C3)c3ccccc3C2=O)cc1 (stereo not drawn) -2.12%, O=C(NC1CCCC1)c1ccc2c(c1)N(Cc1ccccc1)C(=O)c1ccccc1S2 -3.78%, CC1CCN(c2nc3ccc(C(=O)NCc4ccccc4Cl)cc3s2)CC1 2.46%, C[C@H](O)[C@@H]1C(=O)N2C(C(=O)O)=C(S[C@@H]3CN[C@H](CNS(N)(=O)=O)C3)[C@@H](C)[C@@H]12 18.9%, COc1ccc(N2CCN(Cc3nc4c(c(=O)[nH]c(=O)n4C)n3CC(C)C)CC2)cc1 1.19%, O=C(NCc1cccc(Br)c1)c1ccc(NC(=O)N2CCCCc3ccccc32)cc1 6.05%, CCc1ccc(S(=O)(=O)c2cn(Cc3ccccc3F)c3cc(OC)c(OC)cc3c2=O)cc1 10.9%, Cc1ccccc1C(=O)Nc1c(C)nc2ccccn2c1=O -6.75%, CC(=O)c1ccc(NS(=O)(=O)c2ccc3[nH]c4c(c3c2)CCCC4)cc1 -1.44%, Cc1ccc(CCNC(=O)c2c3c(nc4ccccc24)C(=O)N(C2CCCCC2)C3)cc1 -14.9%, Cc1cccc(NC(=O)CS(=O)(=O)c2cccc3nsnc23)c1 -1.08%, O=C(Cc1ccc(-c2ccc(OCCN3CCOCC3)cc2)cn1)NCc1ccccc1 -26%, COc1ccc(NC(=O)CSc2nnc(NC(=O)NC3CCCCC3)s2)cc1OC -15.4%, Cc1cccc(CNC(=O)c2ccc3nc(Cc4ccccc4)oc3c2)c1 -19%, CCOc1ccc(C2c3[nH]c4ccccc4c3CCN2C(=O)CSCc2ccc(F)cc2)cc1 (stereo not drawn) 4.41%, Cc1ccc(CNC(=O)c2c(-c3ccccc3Cl)noc2C)o1 15.9%, Cc1coc2cc3oc(=O)c(CC(=O)NCc4cccc(Cl)c4)c(C)c3cc12 -25.5%, C[C@@H]1O[C@@H](O[C@H]2CC[C@@]3(C)[C@H](CC[C@@H]4[C@H]3C[C@@H](O)[C@]3(C)[C@@H](C5=CC(=O)OC5)CC[C@]43O)C2)C[C@H](O)[C@@H]1O[C@H]1C[C@H](O)[C@H](O[C@H]2C[C@H](O)[C@@H](O)[C@@H](C)O2)[C@H](C)O1 (stereo in doubt) -16% [at 92.2 µM], Cc1ccc(NC(=O)Cn2c(=O)n(Cc3nc(-c4ccccc4)no3)c(=O)c3ccccc32)cc1C 2.84%, Cc1cccc(NC(=O)COc2ccc(-c3nn(C)c(=O)c4ccccc34)cc2)c1 9.65%, CCOc1ccc(CCNC(=O)CCCc2nnc3n(CC)c(=O)c4sccc4n23)cc1OCC -0.637%, COc1cc(OC)c(NC(=O)CN2CCCN(Cc3ccccc3C)S2(=O)=O)cc1Cl 3.29%, COc1cc(NC(=O)C(Cc2ccccc2)NS(=O)(=O)c2cccc3nsnc23)cc(OC)c1 (stereo not drawn) -2.19%, Cc1cccc(NC(=O)CSc2nc3ccccc3nc2N2CCCCC2)c1C -6.65%, COc1ccc(NC(=O)c2c(NC(=O)c3ccncc3)sc3c2CCC(C(C)(C)C)C3)cc1 (stereo not drawn) -6.74%, COc1ccc(C(=O)NNc2ncnc3c2cnn3-c2ccc(C)c(Cl)c2)cc1 3.95%, CCn1c(-c2nonc2N)nc2cncc(CNC3CCNCC3)c21 -21.2%, CCCCNc1nc(Oc2ccc(=O)n(C)n2)nc(N2CCOCC2)n1 5.57%, CC(=O)c1cccc(NC(=O)CCc2c(C)nc3c(c(C)nn3-c3ccccc3)c2C)c1 -6.93%, Cc1cc(C)cc(NC(=O)c2cc(S(=O)(=O)N3CCC(C)CC3)cn2C)c1 -19.3%, O=C(Cn1ccn(-c2ccc(F)c(F)c2)c(=O)c1=O)NCCc1ccccc1 -4.63%, COc1ccc(Br)cc1CNC(=O)c1ccc2c(c1)nc1n2CCC(C)C1 (stereo not drawn) -15.4%, COc1ccc(C(=O)c2c(N)c(-c3nc(-c4ccc(OC)cc4)cs3)c3ccccn23)cc1 -0.637%, Cc1cc(C)c2c(=O)cc(C(=O)Nc3c(C)n(C)n(-c4ccccc4)c3=O)oc2c1 -0.745%, CCOc1ccc(-c2cc3c(=O)n(CC(=O)Nc4cc(F)ccc4C)ccn3n2)cc1 0.71%, O=C(CCC1N=C2c3ccccc3N=C(SCc3cccc(Cl)c3)N2C1=O)N1CCN(c2ccccc2)CC1 (stereo not drawn) -1.84%, Cc1cc(C)c(/C=C/c2onc(C)c2S(=O)(=O)N2CCC(C(=O)NCc3ccccc3Cl)CC2)c(C)c1 9.27%, Cc1ccc2oc3c(c(=O)c2c1)C(c1ccc([N+](=O)[O-])cc1)N(CCCN1CCOCC1)C3=O (stereo not drawn) 10.5%, C=CCc1ccccc1OCc1nc2ccccc2n1CC 0.782%, COc1ccc(S(=O)(=O)c2c(O)c3ccc(C(=O)NCc4ccc(Cl)cc4)cc3[nH]c2=O)cc1 15.8%
